The list shows a part of the results.
Columns and labels:
Assay in all cases: glycan array binding signal (z-score within array); higher = stronger binding
Conditions in all cases: glycan notation: IUPAC condensed, linker removed
[1] = target: Gal(b1-3)[Fuc(a1-4)]GlcNAc(b1-3)Gal(b1-4)[Fuc(a1-3)]GlcNAc
Method in brief: (§1)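 Glycan array data came from 3228 arrays in the Consortium for Functional Glycomics database, and only arrays with an available protein sequence were kept. Glycan names were put into IUPAC-condensed notation, and columns mapping to the same glycan were averaged. The binding signal is a within-array Z-score, averaged across arrays of one protein sequence run at different concentrations or buffers and across linkers. A negative Z-score can be read as non-binding.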

[2] = target: Gal(b1-3)[GlcNAc(b1-6)]GalNAc
Method in brief: as §1

[3] = target: Gal(b1-3)[Neu5Ac(a2-6)]GalNAc
Method in brief: as §1

[4] = target: Gal(b1-3)[Neu5Ac(a2-6)]GlcNAc(b1-6)Gal(b1-4)Glc
Method in brief: as §1

[5] = target: Gal(b1-3)[Neu5Ac(b2-6)]GalNAc
Method in brief: as §1

[6] = target: Gal(b1-4)GalNAc(a1-3)[Fuc(a1-2)]Gal(b1-4)GlcNAc
Method in brief: as §1

[7] = target: Gal(b1-4)GalNAc(b1-3)[Fuc(a1-2)]Gal(b1-4)GlcNAc
Method in brief: as §1

[8] = target: Gal(b1-4)Glc
Method in brief: as §1

[9] = target: Gal(b1-4)Glc6S
Method in brief: as §1

[10] = target: Gal(b1-4)GlcNAc
Method in brief: as §1

[11] = target: Gal(b1-4)GlcNAc(b1-2)Man(a1-3)[Gal(b1-4)GlcNAc(b1-2)Man(a1-6)]Man(b1-4)GlcNAc(b1-4)GlcNAc
Method in brief: as §1

[12] = target: Gal(b1-4)GlcNAc(b1-3)Gal(b1-4)Glc
Method in brief: as §1

[13] = target: Gal(b1-4)GlcNAc(b1-3)Gal(b1-4)GlcNAc
Method in brief: as §1

[14] = target: Gal(b1-4)GlcNAc(b1-3)Gal(b1-4)GlcNAc(b1-3)Gal(b1-4)GlcNAc
Method in brief: as §1

[15] = target: Gal(b1-4)GlcNAc(b1-3)Gal(b1-4)[Fuc(a1-3)]GlcNAc(b1-3)Gal(b1-4)[Fuc(a1-3)]GlcNAc
Method in brief: as §1

[16] = target: Gal(b1-4)GlcNAc(b1-3)GalNAc
Method in brief: as §1

[17] = target: Gal(b1-4)GlcNAc(b1-3)[Gal(b1-4)GlcNAc(b1-6)]GalNAc
Method in brief: as §1

[18] = target: Gal(b1-4)GlcNAc(b1-6)Gal(b1-4)GlcNAc(b1-6)GalNAc
Method in brief: as §1

[19] = target: Gal(b1-4)GlcNAc(b1-6)GalNAc
Method in brief: as §1

[20] = target: Gal(b1-4)GlcNAc(b1-6)[Gal(b1-3)]GalNAc
Method in brief: as §1

[21] = target: Gal3S(b1-3)GalNAc
Method in brief: as §1

[22] = target: Gal3S(b1-3)GlcNAc
Method in brief: as §1

[23] = target: Gal3S(b1-3)[Fuc(a1-4)]GlcNAc
Method in brief: as §1

[24] = target: Gal3S(b1-4)Glc
Method in brief: as §1

[25] = target: Gal3S(b1-4)Glc6S
Method in brief: as §1

[26] = target: Gal3S(b1-4)GlcNAc
Method in brief: as §1

[27] = target: Gal3S(b1-4)GlcNAc6S
Method in brief: as §1

[28] = target: Gal3S6S(b1-4)GlcNAc
Method in brief: as §1

[29] = target: Gal3S6S(b1-4)GlcNAc6S
Method in brief: as §1

[30] = target: Gal4S(b1-4)GlcNAc
Method in brief: as §1

[31] = target: Gal4S6S(b1-4)GlcNAc
Method in brief: as §1

[32] = target: Gal6S(b1-4)Glc
Method in brief: as §1

[33] = target: Gal6S(b1-4)Glc6S
Method in brief: as §1

[34] = target: Gal6S(b1-4)GlcNAc
Method in brief: as §1

[35] = target: GalNAc(a1-3)Gal
Method in brief: as §1

[36] = target: GalNAc(a1-3)GalNAc
Method in brief: as §1

[37] = target: GalNAc(b1-3)Gal(a1-4)Gal(b1-4)GlcNAc
Method in brief: as §1

[38] = target: GalNAc(b1-3)GalNAc
Method in brief: as §1

[39] = target: GalNAc(b1-4)GlcNAc
Method in brief: as §1

[40] = target: Glc(a1-4)Glc
Method in brief: as §1

[41] = target: Glc(a1-6)Glc(a1-6)Glc
Method in brief: as §1

[42] = target: Glc(b1-4)Glc
Method in brief: as §1

[43] = target: Glc(b1-6)Glc
Method in brief: as §1

[44] = target: GlcA(b1-3)Gal
Method in brief: as §1

[45] = target: GlcA(b1-6)Gal
Method in brief: as §1

[46] = target: GlcNAc(a1-3)Gal(b1-4)GlcNAc
Method in brief: as §1

[47] = target: GlcNAc(a1-6)Gal(b1-4)GlcNAc
Method in brief: as §1

[48] = target: GlcNAc(b1-2)Gal(b1-3)GalNAc
Method in brief: as §1

[49] = target: GlcNAc(b1-2)Man(a1-3)[GlcNAc(b1-2)Man(a1-6)]Man(b1-4)GlcNAc(b1-4)GlcNAc
Method in brief: as §1

[50] = target: GlcNAc(b1-3)Gal
Method in brief: as §1

[51] = target: GlcNAc(b1-3)Gal(b1-3)GalNAc
Method in brief: as §1

[52] = target: GlcNAc(b1-3)Gal(b1-4)Glc
Method in brief: as §1

[53] = target: GlcNAc(b1-3)Gal(b1-4)GlcNAc
Method in brief: as §1

[54] = target: GlcNAc(b1-3)Gal(b1-4)GlcNAc(b1-3)Gal(b1-4)GlcNAc
Method in brief: as §1

[55] = target: GlcNAc(b1-3)GalNAc
Method in brief: as §1

[56] = target: GlcNAc(b1-3)[GlcNAc(b1-6)]Gal(b1-4)GlcNAc
Method in brief: as §1

[57] = target: GlcNAc(b1-3)[GlcNAc(b1-6)]GalNAc
Method in brief: as §1

[58] = target: GlcNAc(b1-3)[GlcNAc(b1-6)]GlcNAc(b1-4)GlcNAc
Method in brief: as §1

[59] = target: GlcNAc(b1-4)Gal(b1-4)GlcNAc
Method in brief: as §1

[60] = target: GlcNAc(b1-4)GlcNAc(b1-4)GlcNAc
Method in brief: as §1

[61] = target: GlcNAc(b1-4)GlcNAc(b1-4)GlcNAc(b1-4)GlcNAc(b1-4)GlcNAc
Method in brief: as §1

[62] = target: GlcNAc(b1-4)GlcNAc(b1-4)GlcNAc(b1-4)GlcNAc(b1-4)GlcNAc(b1-4)GlcNAc
Method in brief: as §1

[63] = target: GlcNAc(b1-4)[GlcNAc(b1-6)]GalNAc
Method in brief: as §1

[64] = target: GlcNAc(b1-6)Gal(b1-4)GlcNAc
Method in brief: as §1

[65] = target: GlcNAc(b1-6)GalNAc
Method in brief: as §1

[66] = target: Kdn(a2-3)Gal(b1-3)GlcNAc
Method in brief: as §1

[67] = target: Kdn(a2-3)Gal(b1-4)GlcNAc
Method in brief: as §1

B1: DCAL1 (Homo sapiens), Q8IZS7 (protein)
chain: MVSNFFHVIQVFEKSATLISKTEHIGFVIYSWRKSTTHLGSRRKFAISIYLSEVSLQKYDCPFSGTSFVVFSLFLICAMAGDVVYADIKTVRTSPLELAFPLQRSVSFNFSTVHKSCPAKDWKVHKGKCYWIAETKKSWNKSQNDCAINNSYLMVIQDITAMVRFNI
Which “glycan array binding signal (z-score)” value [1] does the source give for B1 here?
Its value is -0.301.

What about the “glycan array binding signal (z-score)” value [2] of the same binder?
Its value is -0.177.

What about the “glycan array binding signal (z-score)” value [3] of the same binder?
The value was -0.192.

What about the “glycan array binding signal (z-score)” value [4] of the same binder?
Its value is -0.158.

What about the “glycan array binding signal (z-score)” value [5] of the same binder?
Its value is -0.274.

What about the “glycan array binding signal (z-score)” value [6] of the same binder?
The value was -0.206.

And the “glycan array binding signal (z-score)” value [7]?
Its value is -0.151.

What about the “glycan array binding signal (z-score)” value [8] of the same binder?
The value was -0.248.

And the “glycan array binding signal (z-score)” value [9]?
The value was -0.212.

What about the “glycan array binding signal (z-score)” value [10] of the same binder?
Its value is -0.138.

What about the “glycan array binding signal (z-score)” value [11] of the same binder?
Its value is -0.236.

What about the “glycan array binding signal (z-score)” value [12] of the same binder?
Its value is 1.75.

What about the “glycan array binding signal (z-score)” value [13] of the same binder?
Its value is -0.218.

What about the “glycan array binding signal (z-score)” value [14] of the same binder?
The value was -0.213.

And the “glycan array binding signal (z-score)” value [15]?
Its value is -0.237.

What about the “glycan array binding signal (z-score)” value [16] of the same binder?
Its value is -0.154.

And the “glycan array binding signal (z-score)” value [17]?
The value was -0.196.

What about the “glycan array binding signal (z-score)” value [18] of the same binder?
Its value is 0.172.

What about the “glycan array binding signal (z-score)” value [19] of the same binder?
Its value is -0.275.

And the “glycan array binding signal (z-score)” value [20]?
The value was -0.203.

And the “glycan array binding signal (z-score)” value [21]?
The value was -0.144.

What about the “glycan array binding signal (z-score)” value [22] of the same binder?
The value was -0.148.

And the “glycan array binding signal (z-score)” value [23]?
The value was -0.171.

And the “glycan array binding signal (z-score)” value [24]?
Its value is -0.249.

And the “glycan array binding signal (z-score)” value [25]?
Its value is 0.13.

And the “glycan array binding signal (z-score)” value [26]?
The value was -0.175.

And the “glycan array binding signal (z-score)” value [27]?
The value was 0.221.

What about the “glycan array binding signal (z-score)” value [28] of the same binder?
The value was -0.04.

And the “glycan array binding signal (z-score)” value [29]?
Its value is 1.34.

What about the “glycan array binding signal (z-score)” value [30] of the same binder?
The value was 0.024.

And the “glycan array binding signal (z-score)” value [31]?
Its value is 0.371.

And the “glycan array binding signal (z-score)” value [32]?
The value was -0.255.

What about the “glycan array binding signal (z-score)” value [33] of the same binder?
Its value is -0.044.

What about the “glycan array binding signal (z-score)” value [34] of the same binder?
The value was -0.188.

And the “glycan array binding signal (z-score)” value [35]?
Its value is -0.202.

And the “glycan array binding signal (z-score)” value [36]?
The value was -0.268.

What about the “glycan array binding signal (z-score)” value [37] of the same binder?
Its value is -0.276.

And the “glycan array binding signal (z-score)” value [38]?
The value was -0.304.

And the “glycan array binding signal (z-score)” value [39]?
The value was -0.166.

And the “glycan array binding signal (z-score)” value [40]?
The value was 0.023.

And the “glycan array binding signal (z-score)” value [41]?
Its value is -0.234.

What about the “glycan array binding signal (z-score)” value [42] of the same binder?
Its value is -0.149.

And the “glycan array binding signal (z-score)” value [43]?
Its value is -0.198.

What about the “glycan array binding signal (z-score)” value [44] of the same binder?
The value was -0.229.

What about the “glycan array binding signal (z-score)” value [45] of the same binder?
Its value is -0.17.

And the “glycan array binding signal (z-score)” value [46]?
The value was -0.254.

And the “glycan array binding signal (z-score)” value [47]?
The value was -0.057.

And the “glycan array binding signal (z-score)” value [48]?
Its value is -0.121.

What about the “glycan array binding signal (z-score)” value [49] of the same binder?
The value was -0.076.

And the “glycan array binding signal (z-score)” value [50]?
The value was -0.259.

What about the “glycan array binding signal (z-score)” value [51] of the same binder?
The value was -0.239.

And the “glycan array binding signal (z-score)” value [52]?
Its value is -0.236.

And the “glycan array binding signal (z-score)” value [53]?
Its value is -0.025.

What about the “glycan array binding signal (z-score)” value [54] of the same binder?
The value was -0.28.

And the “glycan array binding signal (z-score)” value [55]?
Its value is -0.293.

And the “glycan array binding signal (z-score)” value [56]?
Its value is -0.271.

What about the “glycan array binding signal (z-score)” value [57] of the same binder?
The value was -0.285.

And the “glycan array binding signal (z-score)” value [58]?
Its value is -0.148.

And the “glycan array binding signal (z-score)” value [59]?
Its value is -0.196.

What about the “glycan array binding signal (z-score)” value [60] of the same binder?
Its value is -0.272.

What about the “glycan array binding signal (z-score)” value [61] of the same binder?
The value was -0.233.

What about the “glycan array binding signal (z-score)” value [62] of the same binder?
The value was -0.265.

What about the “glycan array binding signal (z-score)” value [63] of the same binder?
The value was -0.276.

And the “glycan array binding signal (z-score)” value [64]?
Its value is -0.208.

What about the “glycan array binding signal (z-score)” value [65] of the same binder?
The value was -0.235.

What about the “glycan array binding signal (z-score)” value [66] of the same binder?
Its value is -0.183.

And the “glycan array binding signal (z-score)” value [67]?
The value was -0.198.
